Structures are written as SMILES. For part of its entries the source gives two or more results. The list is limited to them. The source may hold further records. Results that share an entry are repeated measurements (runs, samples, wells, individuals or studies). Marks such as (2×) give the number of equal values in this list.

The test system of this test is 276233-004-R-J1-PDC KRAS spheroids with HUVEC/MSC, viability. The experiment in a line: Anticancer human tumor 276233-004-R-J1-PDC patient-derived colon adenocarcinoma cell line growth inhibition [KRAS2]. The following applies: for IC50: compound alone; for viability, T/C: stronger effect = lower value. The text has this:
Multicellular complex tumor spheroid response to RAS pathway inhibitors in combination with a targeted agents in patient-derived cell lines with oncogenic KRAS variants from multiple cancer types
A high-throughput screen of multi-cell type tumor spheroids was designed to identify active combinations of targeted small molecules and KRAS pathway inhibitors. Complex spheroids include a stromal component modeled by human endothelial cells (HUVEC) and fibroblasts modeled by human mesenchymal stem cells (MSCs). The concentration ranges selected for each drug and investigational agent were based upon clinically achievable concentrations if the clinical Cmax of the agent was known.
Compounds. The drugs and investigational agents: BI-3406 (NSC825286), BAY-293 (NSC824723), batoprotafib (TNO155; NSC825523), sotorasib (AMG 510; NSC818433), MRTX1257 (NSC819558), elimusertib (BAY 1895344; NSC800525), molibresib (GSK525762; NSC774829), temuterkib (LY3214996; NSC803410), venetoclax (NSC766270), alisertib (NSC759677), olaparib (NSC753686), talazoparib (NSC767125), erdafitinib (NSC781556), ipatasertib (NSC767898), cabozantinib (NSC761068), nintedanib (NSC756659), abemaciclib (NSC768073), docetaxel (NSC628503), trametinib (NSC758246), and sapanisertib (NSC764658) were obtained from the National Cancer Institute (NCI) Developmental Therapeutics Program Chemical Repository. The FDA-approved anticancer drug set is available from the Developmental Therapeutics Program. […] The stock solutions were prepared in dimethyl sulfoxide (DMSO, Sigma-Aldrich, St. Louis, MO, cat. D2650) at 800-fold the tested concentration and stored at -70 degrees C prior to their use. All drugs and investigational agents were tested over a range starting from a high concentration at or near the clinical Cmax and decreasing in half-log increments. If the clinical Cmax for an agent had not been determined, the highest concentration tested was 10 microM.
Cell Culture. All cells were maintained in an incubator at 37 degrees C and 5% CO2 with 95% humidity. The PDC lines were cultured according to standard operating procedures established by the NCI PDMR (https://pdmr.cancer.gov/sops/default.htm). Briefly, all PDCs were thawed and cultured in Matrigel-coated flasks prepared with a working solution of 1X Ham's F-12 nutrient mix, without supplementation (Invitrogen, Waltham, MA, cat. 11765054), 100 U/mL penicillin-streptomycin (Invitrogen, cat. 15140122), and 2.5% Matrigel (Corning Inc., Corning, NY, cat. 354248) for the first three passages. All PDCs were cultured in complete DMEM/F-12 media containing advanced DMEM/F-12 (Invitrogen, cat. 12634028), 4.9% defined fetal bovine serum, heat inactivated (HyClone Laboratories Inc., Logan, UT, cat. SH30070.03HI), 389 ng/mL hydrocortisone (Sigma-Aldrich, cat. H4001), 9.7 ng/mL human EGF recombinant protein (Invitrogen, cat. PHG0313), 23.4 microg/mL adenine (Sigma-Aldrich, cat. A2786), 97.3 U/mL penicillin-streptomycin (Invitrogen, cat. 15140122), 1.9 mM L-glutamine (Invitrogen, cat. 25030081), and 9.7 microM Y-27632 dihydrochloride (Tocris Bioscience, Bristol, United Kingdom, cat. 1254). The PDCs were cultured in complete DMEM/F12 media without 9.7 microM Y-27632 dihydrochloride for at least two passages prior to the screen. The established cell line HOP-62 was cultured in RPMI 1640 medium, HEPES (Invitrogen, cat. 22400105) with 10% defined fetal bovine serum (HyClone Laboratories Inc., cat. SH30070.03) and 2 mM L-glutamine (Invitrogen, cat. 25030081). The pooled donor HUVEC were cultured in endothelial cell growth medium 2 (PromoCell, Heidelberg, Germany, cat. C-22011) and the hMSC were cultured in mesenchymal stem cell growth medium 2 (PromoCell, cat. C-28009). For all experiments, HUVEC and hMSC were used at passages </=5, while the malignant cell lines were used at passages </=15. […]
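Further: cells exposed to agents for seven days before viability read.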
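Wherever viability, T/C is given: 100% = DMSO vehicle control wells and lower values mean fewer viable cells.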

One may read the IC50 as the concentration that inhibits the measured activity by half. In the case of `COc1cc(OC)cc(N(CCNC(C)C)c2ccc3ncc(-c4cnn(C)c4)nc3c2)c1`, the IC50 was 4.97 µM, 5.63 µM, 6.09 µM, 943 nM, 4.55 µM. Also, the viability, T/C (compound alone 1 µM) was 71.2, 79.8, 67.5, 35.3, 68.9%. Also, the viability, T/C (compound alone 3.16 µM) is on record as 62.5, 76.5, 71.9, 44.1, 62.7%. Besides, the viability, T/C (compound alone 10 µM) was 30.6, 27.2, 35.4, 0.53, 23.9%.

As for `CC1(C)CCC(CN2CCN(c3ccc(C(=O)NS(=O)(=O)c4ccc(NCC5CCOCC5)c([N+](=O)[O-])c4)c(Oc4cnc5[nH]ccc5c4)c3)CC2)=C(c2ccc(Cl)cc2)C1`, the viability, T/C by setting is: (compound alone 3.16 µM) 106, 96.5, 83.1, 82.5, 73.1%; (compound alone 10 µM) 59.5, 52.4, 77, 65.4, 49.3%.

Regarding `Cn1ncnc1[C@H]1c2n[nH]c(=O)c3cc(F)cc(c23)N[C@@H]1c1ccc(F)cc1`, the viability, T/C by setting is: (compound alone 0.00316 µM) 80.9, 122, 102, 78.7, 97.8%; (compound alone 0.01 µM) 118, 97.6, 107, 96.4, 88.9%; (compound alone 0.0316 µM) 98.3, 110, 117, 85.8, 111%.

In the case of `O=C(c1cc(Cc2n[nH]c(=O)c3ccccc23)ccc1F)N1CCN(C(=O)C2CC2)CC1`, the viability, T/C runs as follows: (compound alone 0.0316 µM) 103, 86.7, 107, 114, 91.9%; (compound alone 3.16 µM) 97, 88.6, 119, 96, 81.3%; (compound alone 10 µM) 85.9, 108, 77.3, 90.6, 87.6%.

Take `COc1cc(Nc2ncc3c(n2)-c2ccc(Cl)cc2C(c2c(F)cccc2OC)=NC3)ccc1C(=O)O`: the viability, T/C is recorded as 84.5, 98, 120, 93.2, 104% (compound alone 0.0316 µM) and 84.3, 100, 92.1, 85.2, 69.7% (compound alone 10 µM).

Take `COc1cc2nc(C)nc(NC(C)c3cc(N)cc(C(F)(F)F)c3)c2cc1OC1CCOC1` (stereo not drawn): the viability, T/C (compound alone 0.1 µM) is reported as 100, 77.7, 91.8, 95.4, 93.1, 72.5, 71.9, 88, 88.1, 87, 72.1, 91.3, 91, 83.1, 89.9, 82.9, 95.8%; the viability, T/C (compound alone 0.316 µM) is 78.9, 78.3, 90, 85.5, 105, 72.7, 99, 94.8, 78, 89.5, 72.1, 77.8, 92.5, 82.1, 108, 85, 90.2%; the viability, T/C (compound alone 1 µM) was 96, 90, 98.8, 80.4, 93.5, 71.1, 68.1, 82.1, 80.3, 83.9 (2×), 84.5, 85.2, 88.9, 89.6, 88.7, 89.7%; the viability, T/C (compound alone 3.16 µM) was 64, 64.8, 75.9, 79.6, 86.2, 65.7, 78.9, 94.8, 99.2, 86.6, 75.7, 80.2, 62.6, 80.5, 67, 98.6, 85.8%; the viability, T/C (compound alone 10 µM) is given as 72.9, 65.3, 87.8, 23.4, 34.7, 16.9, 20.4, 25.4, 33.1, 50.4, 21.2, 49.9, 45.1, 36.2, 36.1, 43.2, 48.8%. Besides, the IC50 (run of 07/12/2021) was > 10 µM, 5.8 µM, 7.08 µM, 4.57 µM and the IC50 (run of 07/19/2021) is 5.61 µM, 6.45 µM, 6.95 µM, > 10 µM, 5.47 µM.

For `CC1OCC2(CCN(c3cnc(Sc4ccnc(N)c4Cl)c(N)n3)CC2)C1N` (stereo not drawn), the viability, T/C runs as follows: (compound alone 0.1 µM) 77.8 (2×), 102 (2×), 76.5, 89.5, 85.1, 86.4, 66, 86.5, 80, 84.3, 84.2, 97.1, 95.1, 90.1, 83.4, 101, 89.3%; (compound alone 0.316 µM) 68.5, 86.9, 85.1, 87.2, 77.7, 77.8, 71.6, 77.4, 81 (2×), 74.8, 96.2, 81.2, 82, 89.4, 89.1, 76.9, 90.4, 83.4, 79.7%; (compound alone 1 µM) 88.1, 109, 89.4, 59.7, 60.6, 57.8, 72.8, 73.6, 61.7, 69.3, 68.8, 73.5, 76.2, 78.9, 79.4, 82.4, 65.9, 83.1, 64.9, 84.5%; (compound alone 3.16 µM) 36.5, 47.5, 55.3, 50.4, 52.6, 48, 54.4, 56.9, 62.3, 70.6, 74.1, 63.3, 82.6, 68.1, 78.2, 65.6, 73.6, 61.3, 81.4%; (compound alone 10 µM) 36.1, 49.4, 50.8, 47, 42.1, 56.2, 75.6, 57.6, 71, 55.3, 67.7, 54.5, 70.9, 61.4, 68, 64.1, 61.8, 54.1, 72.5%. In addition, the IC50 (run of 07/12/2021) is recorded as 2.18 µM, 2.99 µM, 9.04 µM, > 10 µM, 4.75 µM, 2.28 µM.

For the compound `C=CC(=O)N1CCN(c2nc(OCC3CCCN3C)nc3c2CCN(c2cccc4cccc(C)c24)C3)CC1CC#N` (stereo not drawn), the viability, T/C (compound alone 0.0316 µM) was 111, 92.2, 85.8, 88.2, 85, 80.8 (2×), 78, 113, 106, 80, 109, 83.2, 101, 94.9, 102, 92%; the viability, T/C (compound alone 0.1 µM) is 86.2, 96.3, 78.5, 84.5, 83, 93.4, 85.6, 107 (2×), 92.9, 92.7, 80.5, 93.6, 98, 93.3, 85.7, 89.8%; the viability, T/C (compound alone 0.316 µM) was 98.7, 90.8 (2×), 77.6, 80.3, 62.8, 78.5, 79.5, 98.9, 102, 83.7, 63.3, 104, 81.9, 91.9, 82.5, 89.5%; the viability, T/C (compound alone 1 µM) was 86.9 (2×), 83.9, 95.4, 85.3, 87.3, 88.6, 67.9, 84.5, 86.2, 103 (2×), 63.7, 86.4, 77.5, 93, 99.8%; the viability, T/C (compound alone 3.16 µM) is 99.1, 52.4, 46.2, 57.5, 60.3 (2×), 56 (2×), 45.3, 53.3, 66.7, 46.9, 62.5, 75.1, 57.4, 54.9, 67.4%.

Regarding `CC(C)n1nc(-c2ccc3oc(N)nc3c2)c2c(N)ncnc21`, under “compound alone 0.00316 µM”, the viability, T/C is on record as 69.3, 96.4, 61.5, 75.6, 67.6%.

The record behind these values is PubChem BioAssay AID1963873 (Molecular Pharmacology Branch, DTP, NCI, 2024).
